# Reference: the antibiotic and cytotoxicity screens of Wong et al. (2023)
# The list shows a part of the results.
# System: HSkMC (human skeletal muscle cells)
# Assay: cytotoxicity call (relative viability < 0.9)
# Conditions: 10 µM
row,Structure (SMILES),cytotoxicity call
1,COC(=O)C1=CO[C@@H](O[C@@H]2O[C@H](CO)[C@@H](O)[C@H](O)[C@H]2O)[C@@H]2[C@@](C)(O)[C@@H](OC(=O)/C=C/c3ccc(O)cc3)C[C@]12O,inactive
2,C[C@H](CO)N1C[C@H](C)[C@@H](CN(C)Cc2ccc(Oc3ccccc3)cc2)Oc2ccc(NC(=O)Nc3ccc4c(c3)OCO4)cc2C1=O,inactive
3,CCCN(C)C[C@@H]1OCCCC[C@H](C)Oc2ccc(NC(=O)Nc3ccc(F)cc3)cc2C(=O)N([C@H](C)CO)C[C@@H]1C,inactive
4,C[C@@H]1CN([C@H](C)CO)C(=O)c2cc(NC(=O)C3CCCCC3)ccc2O[C@@H](C)CCCCO[C@H]1CN(C)Cc1ccncc1,inactive
5,C[C@H]1CN([C@@H](C)CO)C(=O)c2cc(NC(=O)CCCN(C)C)ccc2O[C@@H]1CN(C)S(=O)(=O)c1cn(C)cn1,inactive
6,NCc1ccc(-c2nc3ccccc3o2)cc1,inactive
7,COc1ccc(S(=O)(=O)Nc2cccc3c2O[C@H](CN(C)Cc2ccc(-c4ccccc4)cc2)[C@H](C)CN([C@@H](C)CO)C3=O)cc1,inactive
8,Cc1noc(C)c1NC(=O)N(C)C[C@@H]1OCCCC[C@@H](C)Oc2ccc(NS(=O)(=O)c3ccc(F)cc3)cc2C(=O)N([C@H](C)CO)C[C@@H]1C,inactive
9,C[C@@H]1CN([C@@H](C)CO)C(=O)c2cccc(NS(=O)(=O)c3cn(C)cn3)c2O[C@@H]1CN(C)Cc1ccc(C(=O)Nc2ccccc2N)cc1,inactive
10,O=C(CCCCC(=O)N/N=C/[C@H](O)[C@@H](O)[C@H](O)CO)NO,inactive

# System: S. aureus RN4220
# Assay: growth inhibition call (relative growth <= 0.2)
# Conditions: 50 µM
row,Structure (SMILES),growth inhibition call
1,C[C@@H]1CCCCO[C@H](CN(C)S(C)(=O)=O)[C@@H](C)CN([C@H](C)CO)C(=O)c2cc(NC(=O)c3ccncc3)ccc2O1,inactive
2,CC(C)NC(=O)Nc1ccc2c(c1)C(=O)N([C@H](C)CO)C[C@H](C)[C@@H](CN(C)C(=O)Nc1cccc3ccccc13)OCCCC[C@H](C)O2,inactive
3,N[C@H]1CCCC[C@@H]1N1C(=O)CSC1=O,inactive
4,Cc1ccc(S(=O)(=O)N(C)C[C@H]2Oc3ccc(NC(=O)NC(C)C)cc3C(=O)N([C@@H](C)CO)C[C@@H]2C)cc1,inactive
5,COCC(=O)N1C[C@H](C)[C@H](OC)CN(C)C(=O)c2cc(NC(=O)Nc3cccc(F)c3)ccc2OC[C@@H]1C,inactive
6,C[C@@H]1CN([C@H](C)CO)C(=O)c2cc(NS(=O)(=O)c3ccccc3)ccc2O[C@@H](C)CCCCO[C@H]1CN(C)Cc1ccc(Cl)c(Cl)c1,inactive
7,Cc1ccc(S(=O)(=O)Nc2ccc3c(c2)C(=O)N([C@@H](C)CO)C[C@H](C)[C@H](CN(C)C(=O)Nc2cccc4ccccc24)OCCCC[C@H](C)O3)cc1,inactive
8,O=C1CN(S(=O)(=O)Cc2ccccc2)C[C@H]2[C@@H](c3ccc(C#Cc4ccc(F)cc4)cc3)[C@H](CO)N12,inactive
9,COc1ccc(NC(=O)N(C)C[C@@H]2OCCCC[C@H](C)Oc3ccc(NC(=O)c4ccccc4)cc3C(=O)N([C@H](C)CO)C[C@H]2C)cc1,inactive
10,COc1ccc([Si](C)(C)[C@H]2[C@H](CC(=O)N3Cc4ccccc4C[C@H]3CO)O[C@@]3(C(=O)N(Cc4cccc(N5CCOC5=O)c4)c4ccccc43)[C@@H]2C)cc1,inactive
11,CNC(=O)C[C@H]1CC[C@@H]2[C@H](COC[C@H](O)CN2C(=O)Nc2ccc3c(c2)OCO3)O1,inactive
12,C[C@H](CO)N1C[C@H](C)[C@@H](CN(C)C(=O)C2CCCCC2)OCCCC[C@H](C)Oc2ccc(NC(=O)Nc3ccccc3)cc2C1=O,inactive
13,O=C(CN1CCOCC1)NCC[C@@H]1CC[C@@H](NC(=O)Nc2ccccc2)[C@H](CO)O1,inactive
14,Cc1noc(C)c1NC(=O)N(C)C[C@@H]1Oc2ccc(NC(=O)CCCN(C)C)cc2C(=O)N([C@@H](C)CO)C[C@@H]1C,inactive
15,Nc1ncn([C@H]2C[C@H](O)[C@@H](CO)O2)c(=O)n1,inactive
16,C[C@@H]1CN([C@H](C)CO)C(=O)c2cc(NS(=O)(=O)c3cn(C)cn3)ccc2O[C@H]1CN(C)Cc1ccc(C(=O)O)cc1,inactive
17,C[C@@H]1CN([C@@H](C)CO)C(=O)c2cc(NC(=O)Cc3cn(C)c4ccccc34)ccc2O[C@@H]1CN(C)S(=O)(=O)c1cn(C)cn1,inactive
18,CCc1c(C(=O)OC)nnn1-c1nonc1N,inactive
19,CC1(C)S[C@@H]2[C@H](NC(=O)[C@H](N)c3ccc(O)cc3)C(=O)N2[C@H]1C(=O)O,active
